{"source": "PubChem BioAssay AID504333", "about": "(National Center for Advancing Translational Sciences (NCATS), 2011)", "note": "Out of some 360,000 compounds screened, about 16,000 (4.4%) were called active. The inconclusive results got no clear call from the source; some entries with a clear call stand among them for comparison. Calls come from the whole dose curve; as a rule, active = well fitted inhibition curve with a large enough effect; inconclusive = small, poorly fitted or top-dose-only effect; inactive = no such curve, though single readings can be large or run the other way. A potency beside an inconclusive call is a rough fit, not a confirmed value. % is set by controls: 0 for no effect and ±100 for the full control effect; potency is the fitted concentration of half-maximal effect; tags give direction and shape of the fitted curve.", "data": [{"target": "Bromodomain adjacent to zinc finger domain protein 2B (Homo sapiens) (UniProt Q9UIF8)", "sequence (Q9UIF8 whole entry, looked up, the tested form may be a part)": "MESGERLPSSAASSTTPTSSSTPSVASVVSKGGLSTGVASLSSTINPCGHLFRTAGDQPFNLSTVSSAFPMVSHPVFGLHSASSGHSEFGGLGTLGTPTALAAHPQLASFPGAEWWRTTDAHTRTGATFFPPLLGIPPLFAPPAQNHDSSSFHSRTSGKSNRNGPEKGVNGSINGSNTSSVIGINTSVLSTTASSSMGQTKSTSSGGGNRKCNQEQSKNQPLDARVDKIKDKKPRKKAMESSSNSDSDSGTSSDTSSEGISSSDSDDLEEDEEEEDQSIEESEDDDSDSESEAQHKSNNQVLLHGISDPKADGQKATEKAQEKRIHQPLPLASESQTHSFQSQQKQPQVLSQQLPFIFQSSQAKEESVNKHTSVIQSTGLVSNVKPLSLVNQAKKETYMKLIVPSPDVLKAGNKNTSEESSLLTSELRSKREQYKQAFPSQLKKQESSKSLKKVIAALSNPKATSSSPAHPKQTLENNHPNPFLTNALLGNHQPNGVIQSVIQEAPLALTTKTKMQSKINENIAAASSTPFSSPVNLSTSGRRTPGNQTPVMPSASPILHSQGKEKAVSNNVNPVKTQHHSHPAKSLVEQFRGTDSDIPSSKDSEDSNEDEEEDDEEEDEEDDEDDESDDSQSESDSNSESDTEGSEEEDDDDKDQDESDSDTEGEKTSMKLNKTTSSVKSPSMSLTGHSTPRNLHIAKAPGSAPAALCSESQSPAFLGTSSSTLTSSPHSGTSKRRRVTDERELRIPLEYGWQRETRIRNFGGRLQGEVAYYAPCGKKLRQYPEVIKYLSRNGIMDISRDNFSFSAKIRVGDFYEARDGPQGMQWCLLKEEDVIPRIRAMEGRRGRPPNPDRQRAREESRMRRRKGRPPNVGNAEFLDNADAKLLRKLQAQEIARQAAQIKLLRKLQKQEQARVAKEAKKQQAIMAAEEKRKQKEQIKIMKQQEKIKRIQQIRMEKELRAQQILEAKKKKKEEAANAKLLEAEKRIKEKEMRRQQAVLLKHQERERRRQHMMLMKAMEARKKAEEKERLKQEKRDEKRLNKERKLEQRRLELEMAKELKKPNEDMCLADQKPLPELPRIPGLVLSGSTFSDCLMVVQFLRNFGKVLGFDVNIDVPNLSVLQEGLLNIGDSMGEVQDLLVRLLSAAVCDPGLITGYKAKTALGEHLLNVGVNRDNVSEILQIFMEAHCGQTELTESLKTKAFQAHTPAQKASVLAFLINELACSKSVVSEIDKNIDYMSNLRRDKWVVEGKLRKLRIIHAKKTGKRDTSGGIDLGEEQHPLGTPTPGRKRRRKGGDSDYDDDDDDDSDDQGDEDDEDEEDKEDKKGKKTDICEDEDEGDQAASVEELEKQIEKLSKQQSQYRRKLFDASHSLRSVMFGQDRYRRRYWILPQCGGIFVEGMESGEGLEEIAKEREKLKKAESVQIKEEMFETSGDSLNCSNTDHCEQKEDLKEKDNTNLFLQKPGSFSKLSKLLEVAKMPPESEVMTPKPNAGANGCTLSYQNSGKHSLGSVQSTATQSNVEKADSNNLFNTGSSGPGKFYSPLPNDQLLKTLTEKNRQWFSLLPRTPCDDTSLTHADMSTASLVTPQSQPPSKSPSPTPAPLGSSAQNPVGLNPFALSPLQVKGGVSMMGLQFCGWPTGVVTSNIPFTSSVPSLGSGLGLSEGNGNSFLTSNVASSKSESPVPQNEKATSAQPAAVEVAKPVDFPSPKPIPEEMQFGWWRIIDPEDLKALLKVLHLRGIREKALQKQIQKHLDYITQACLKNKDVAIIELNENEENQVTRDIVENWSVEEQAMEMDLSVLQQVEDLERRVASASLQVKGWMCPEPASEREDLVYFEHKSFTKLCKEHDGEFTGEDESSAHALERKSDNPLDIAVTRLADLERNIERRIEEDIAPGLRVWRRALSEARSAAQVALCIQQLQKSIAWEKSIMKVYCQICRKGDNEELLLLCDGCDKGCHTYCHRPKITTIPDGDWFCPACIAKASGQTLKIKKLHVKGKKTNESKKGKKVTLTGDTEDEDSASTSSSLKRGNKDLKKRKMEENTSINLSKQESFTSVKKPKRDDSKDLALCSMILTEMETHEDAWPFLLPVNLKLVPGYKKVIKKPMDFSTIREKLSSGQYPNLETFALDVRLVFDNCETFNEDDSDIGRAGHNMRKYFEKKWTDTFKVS", "experiment": "qHTS Assay for Inhibitors of BAZ2B; note: nearly all actives have a fitted effect of over 60% in size", "conditions": "AlphaScreen BAZ2B-H3K14Ac peptide displacement; activity change, negative = inhibition: at 114 µM (top of the series)", "method_in_brief": "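BAZ2B (50 nM) with biotin-H3(5-23)K14Ac peptide (50 nM) in PBS pH 7.4, 0.01% Tween-20, preformed 30 min, then compound 30 min at room temperature; top concentration 110uM. AlphaScreen streptavidin donor/nickel chelate acceptor beads (10 ug/mL final), 20 min dark, signal read.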", "values": [{"molecule": "Cc1ccc(N(C)S(=O)(=O)c2cccc(C(=O)Nc3ccc(N4CCOCC4)cc3)c2)cc1", "Potency": "inconclusive: 44.7 µM [inhibitor, partial curve]"}, {"molecule": "Clc1cccc(CN2CCSCC2)c1", "Potency": "inconclusive: 89.1 µM [inhibitor, single point]"}, {"molecule": "CC(=O)CC(=O)Nc1nc(C)cc(C)n1", "activity change, negative = inhibition": "inactive: -9.82%"}, {"molecule": "Cc1ccccc1NC(=O)CSc1nc(-c2ccccc2)cn1-c1ccccc1F", "Potency": "inconclusive: 11.2 µM [inhibitor, partial curve, poor fit]"}, {"molecule": "Cc1nc(N2CCCCC2)c2sc(=S)n(C)c2n1", "activity change, negative = inhibition": "inactive: 5.78%"}, {"molecule": "N=c1c2c3c(sc2nc2n1CCCCC2)CCCCC3", "activity change, negative = inhibition": "inactive: 7.53%"}, {"molecule": "CN(C)CCCNC(=O)c1ccc(-c2cc(O)c3ncccc3c2)cc1", "Potency": "active: 7.08 µM"}, {"molecule": "Cc1ccc(Cl)cc1Nc1nc(-c2sc(NC(=O)c3ccccc3)nc2C)cs1", "Potency": "inconclusive: 79.4 µM [inhibitor, single point]"}, {"molecule": "CN(C)C(=S)c1ccc(N(C)C)cc1", "Potency": "inconclusive: 63.1 µM [inhibitor, partial curve]"}, {"molecule": "COc1ccc(NC(=O)c2sc3nc4c(cc3c2N)CCCCCC4)cc1", "Potency": "inconclusive: 79.4 µM [inhibitor, single point]"}, {"molecule": "O=C(Nc1nnc(-c2ccccc2Cl)o1)c1ccco1", "Potency": "active: 79.4 µM"}, {"molecule": "COc1ccccc1Cn1ccn(Cc2ccc(C)cc2)c(=O)c1=O", "Potency": "inconclusive: 70.8 µM [inhibitor, single point]"}, {"molecule": "CN(C(=O)CSc1cc(C(=O)c2nccn2C)c2ccccc2n1)c1ccccc1", "Potency": "inconclusive: 63.1 µM [inhibitor, partial curve]"}, {"molecule": "COc1ccc(C2CC(c3ccc(Br)cc3)=NN2C(=S)Nc2ccccc2)cc1", "note": "(configuration not stated)", "Potency": "inconclusive: 8.91 µM [inhibitor, full curve]"}, {"molecule": "CC1(C)C(c2cccs2)=[N+]([O-])C2(CCCCC/C2=N\\NC(N)=S)N1O", "note": "(configuration not stated)", "activity change, negative = inhibition": "inactive: 25.6%"}, {"molecule": "CCN(CC)CCCN(C(=O)c1ccccc1F)c1nc(-c2ccc(OC)cc2)cs1", "Potency": "inconclusive: 89.1 µM [inhibitor, single point]"}, {"molecule": "CCCCCCc1nc2ccccc2c(=O)n1NC(=O)c1c(O)c2cccc3c2n(c1=O)CCC3", "Potency": "inconclusive: 11.2 µM [inhibitor, full curve]"}, {"molecule": "CCc1nnc(NC(=O)C2Cc3ccccc3CN2S(=O)(=O)c2c(C)c(C)cc(C)c2C)s1", "note": "(configuration not stated)", "activity change, negative = inhibition": "inactive: -25.4%"}, {"molecule": "O=C(O)Cc1sc(Nc2ccc(F)cc2)nc1-c1cccs1", "Potency": "inconclusive: 50.1 µM [inhibitor, partial curve]"}, {"molecule": "O=C(N1CCN(c2ccccn2)CC1)C(Cl)(Cl)Cl", "activity change, negative = inhibition": "inactive: 2.77%"}, {"molecule": "O=C(CSc1cn(CC(=O)N2CCCCC2)c2ccccc12)NCc1ccc(F)cc1", "Potency": "inconclusive: 79.4 µM [inhibitor, single point]"}, {"molecule": "Cc1ccc(/C=N/Nc2nc(Cl)c(Cl)cc2Cl)s1", "activity change, negative = inhibition": "inactive: -5.96%"}, {"molecule": "CCOc1cc(-c2c(C#N)c(N)nc3c2CCCC3C)ccc1O", "note": "(configuration not stated)", "Potency": "inconclusive: 89.1 µM [inhibitor, single point]"}, {"molecule": "CC(C)NCCOCCOc1ccccc1F", "Potency": "active: 50.1 µM"}, {"molecule": "C/C(CC(=O)Nc1ccc(N(C)C)cc1)=N\\NC(=O)c1ccccn1", "Potency": "active: 56.2 µM"}, {"molecule": "O=C(CNS(=O)(=O)c1c(F)cc(F)cc1Br)OCC(=O)N1CCCC1=O", "activity change, negative = inhibition": "inactive: 3.5%"}, {"molecule": "COc1cc(OC)cc(C(=O)NCCSc2c[nH]c3ccccc23)c1", "activity change, negative = inhibition": "inactive: -27.6%"}, {"molecule": "O=C(/C=C/c1cccs1)N1CCC2(CC1)Oc1ccc(Cl)cc1C(=O)C21CC(c2ccccc2)=NO1", "note": "(configuration not stated)", "activity change, negative = inhibition": "inactive: -15.1%"}, {"molecule": "Cc1ccc(Cn2c(=O)n(-c3ccc(C)cc3)c(=O)c3c2c2cc(C)ccc2n3C)cc1", "activity change, negative = inhibition": "inactive: 2.31%"}, {"molecule": "Cc1cc(C)c2[nH]c(O)c(N=NC3=NC(=O)CS3)c2c1", "Potency": "inconclusive: 79.4 µM [inhibitor, partial curve]"}, {"molecule": "O=C(CNCc1ccc(F)cc1)Nc1ccc(S(=O)(=O)N2CCOCC2)cc1", "activity change, negative = inhibition": "inactive: -15.3%"}, {"molecule": "CSc1ccc(CN2CCCC(N3CCN(c4ccccc4)CC3)C2)cc1", "note": "(configuration not stated)", "Potency": "inconclusive: 44.7 µM [inhibitor, partial curve]"}, {"molecule": "Cc1ccc2nc(-c3ccccn3)[nH]c2c1", "activity change, negative = inhibition": "inactive: -5.76%"}, {"molecule": "O=C(c1c[nH]c2ccccc12)N1CCN(c2ccccc2)CC1", "Potency": "inconclusive: 79.4 µM [inhibitor, single point]"}, {"molecule": "Cc1ccc(N2CC(C(=O)Nc3nnc(SCCN4CCOCC4)s3)CC2=O)cc1", "note": "(configuration not stated)", "activity change, negative = inhibition": "inactive: -11.9%"}, {"molecule": "CC1=NN(c2nc(-c3ccc(C)cc3)cs2)C(=O)C1N=Nc1ccccc1O", "note": "(configuration not stated)", "Potency": "inconclusive: 15.8 µM [inhibitor, full curve]"}, {"molecule": "O=C(OCCN1CCOCC1)c1ccc2c(c1)OCCO2", "Potency": "inconclusive: 100 µM [inhibitor, single point]"}, {"molecule": "O=C(O)Cc1ccc(NS(=O)(=O)c2ccccc2Cl)cc1", "Potency": "inconclusive: 100 µM [inhibitor, partial curve]"}, {"molecule": "O=[N+]([O-])c1ccc(Cl)cc1Sc1ccccn1", "Potency": "inconclusive: 50.1 µM [inhibitor, partial curve]"}, {"molecule": "COc1cc(/C=C2\\C(=O)ON=C2c2ccccc2)cc(Br)c1O", "Potency": "active: 39.8 µM"}, {"molecule": "CCCNS(=O)(=O)c1ccc(CCC(=O)NCc2ccco2)cc1", "activity change, negative = inhibition": "inactive: -5.84%"}, {"molecule": "COc1ccc(Nc2nc(N)nc(CSC(=S)N3CCC(C)CC3)n2)cc1", "Potency": "inconclusive: 22.4 µM [inhibitor, full curve, poor fit]"}, {"molecule": "CN(Cc1ccccc1)C1=CC(=[N+]2CCCCC2)CC(C)(C)C1", "Potency": "inconclusive: 56.2 µM [inhibitor, partial curve]"}, {"molecule": "CN1c2cccc3cccc(c23)N(C)C1(C)C", "Potency": "active: 50.1 µM"}, {"molecule": "COCCn1c(SC(C)C(=O)NCC2CCCO2)nc2sc3c(c2c1=O)CCC3", "note": "(configuration not stated)", "Potency": "inconclusive: 89.1 µM [inhibitor, single point]"}, {"molecule": "N#CC1=C(N)N2C(=C(C#N)C1c1cccc(Br)c1)Nc1ccccc12", "note": "(configuration not stated)", "activity change, negative = inhibition": "inactive: 2.52%"}, {"molecule": "O=[N+]([O-])c1ccccc1/C=N/N1CCN(c2ccncc2S(=O)(=O)N2CCCCC2)CC1", "Potency": "active: 31.6 µM"}, {"molecule": "O=C(CN1CCCC1)N/N=C/c1c(O)ccc2ccccc12", "Potency": "active: 28.2 µM"}, {"molecule": "COc1ccccc1NS(=O)(=O)c1ccc2c(c1)n(C)c(=O)n2C", "Potency": "inconclusive: 79.4 µM [inhibitor, single point]"}, {"molecule": "Cc1cc(OCCOCCN(C)C)ccc1Cl", "Potency": "inconclusive: 89.1 µM [inhibitor, single point]"}, {"molecule": "COc1ccc(-c2nc(N)nc(C(F)(F)F)c2-c2csc(C)n2)c(O)c1", "activity change, negative = inhibition": "inactive: -7.12%"}, {"molecule": "CCCCC1CCC(C(=O)N(CC(C)C)c2c(N)n(Cc3ccccc3)c(=O)[nH]c2=O)CC1", "note": "(configuration not stated)", "Potency": "inconclusive: 79.4 µM [inhibitor, single point]"}, {"molecule": "CC(C)(C)OC(=O)CNC(=O)c1nc[nH]c1C(=O)NCC(=O)OC(C)(C)C", "Potency": "inconclusive: 89.1 µM [inhibitor, single point]"}, {"molecule": "COc1ccccc1C(=O)NCc1nnnn1-c1ccc(C)c(C)c1", "activity change, negative = inhibition": "inactive: 8.28%"}, {"molecule": "Cc1nc(Nc2ccc(S(N)(=O)=O)cc2)sc1-c1ccccc1", "Potency": "inconclusive: 70.8 µM [inhibitor, single point]"}, {"molecule": "CCc1ccc2c(c1)C(NC(C)=O)C(=O)N2CC", "note": "(configuration not stated)", "activity change, negative = inhibition": "inactive: 5.42%"}, {"molecule": "C#CC1CN(Cc2ccccc2)CC(C#C)N1C", "note": "(configuration not stated)", "Potency": "inconclusive: 89.1 µM [inhibitor, single point]"}, {"molecule": "CC1C(=O)CCC1(C(=O)O)c1ccccc1", "note": "(configuration not stated)", "activity change, negative = inhibition": "inactive: 13.1%"}, {"molecule": "N#Cc1c(NC(=O)Cn2c(=O)oc3ccccc32)oc(-c2ccccc2)c1-c1ccccc1", "Potency": "inconclusive: 79.4 µM [inhibitor, single point]"}, {"molecule": "Cc1ccc(-c2nc3c(C)cccn3c2Nc2ccccc2C)s1", "Potency": "active: 15.8 µM"}, {"molecule": "C=CCn1c(C)cc(C)c(C#N)c1=O", "Potency": "inconclusive: 100 µM [inhibitor, single point]"}, {"molecule": "CCN(CCCNC(=O)c1ccc(Sc2ccc(F)cc2)c(NC(C)=O)c1)c1ccccc1", "Potency": "inconclusive: 14.1 µM [inhibitor, full curve]"}, {"molecule": "Cc1c(F)cccc1NC(=O)CCCCCC1NC(=O)NC1C", "note": "(configuration not stated)", "Potency": "active: 1 µM"}, {"molecule": "COc1ccc(CN(C)C(=O)CNC(=O)c2ccc3ccccc3c2)c(OC)c1", "Potency": "inconclusive: 4.47 µM [inhibitor, full curve, poor fit]"}, {"molecule": "CC(=O)c1ccc(S(=O)(=O)Nc2ccc(-c3ccc4nncn4n3)cc2)cc1", "Potency": "inconclusive: 56.2 µM [inhibitor, partial curve]"}, {"molecule": "CCOC(=O)c1ccc(S(=O)(=O)N2CCN(CC(O)COc3cccc(C(C)=O)c3)CC2)cc1", "note": "(configuration not stated)", "Potency": "active: 79.4 µM"}, {"molecule": "O=C(CN1CCc2ccccc21)Nc1ccc2c(c1)OCCCO2", "Potency": "inconclusive: 50.1 µM [inhibitor, partial curve]"}, {"molecule": "CCOC(=O)c1ccc(Nc2nc3nonc3nc2Nc2cccc(C)c2C)cc1", "Potency": "active: 22.4 µM"}, {"molecule": "COc1ccc(-c2nc3c4ccccc4ccn3c2CN2CCCCC2)cc1", "Potency": "inconclusive: 44.7 µM [inhibitor, partial curve]"}, {"molecule": "CCn1c(SCC(=O)N2CCN(c3ccc(Cl)cc3)CC2)nc2ccccc2c1=O", "Potency": "active: 50.1 µM"}, {"molecule": "Cc1c(-c2ccccn2)c(=O)[nH]n1-c1ccc(F)cc1", "Potency": "active: 50.1 µM"}, {"molecule": "O=C(C1=C(O)C(=O)N(CCN2CCOCC2)C1c1ccc(Br)cc1)c1cc2ccccc2o1", "note": "(configuration not stated)", "Potency": "inconclusive: 25.1 µM [inhibitor, full curve, poor fit]"}, {"molecule": "O=C(CCc1nc(-c2ccccc2)no1)Nc1cccnc1", "activity change, negative = inhibition": "inactive: 2.99%"}, {"molecule": "Nc1nc(-c2ccccc2)c(-c2ccc([N+](=O)[O-])cc2)s1", "activity change, negative = inhibition": "inactive: -17.9%"}, {"molecule": "COc1ccc(S(=O)(=O)N2CCOC23CCN(S(=O)(=O)c2c(C)cc(C)cc2C)CC3)cc1", "activity change, negative = inhibition": "inactive: 4.95%"}, {"molecule": "Cc1ccccc1C(=O)OCc1cc(=O)n2nc(C3CC3)sc2n1", "activity change, negative = inhibition": "inactive: -1.82%"}, {"molecule": "O=C(CSc1nc2ccccc2c(=O)[nH]1)Nc1ccc(S(=O)(=O)N2CCCC2)cc1", "Potency": "inconclusive: 89.1 µM [inhibitor, single point]"}]}]}
